Results published in the supplement of paper PMC4967469.

Columns and labels:
Assay in all cases: Viability of human cancer cell lines after 72 h of drug (GDSC screen)
AT-7519 = compound: O=C(NC1CCNCC1)c1n[nH]cc1NC(=O)c1c(Cl)cccc1Cl [AT-7519]; settings: top dose 10.24 µM; top dose inferred
Experimental: (§1)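 Human cancer cell lines in 384-well plates, medium with 10% serum, drug for 72 h over a 256-fold dose range (nine 2-fold or five 4-fold steps up to the top dose). Adherent lines were fixed and stained with the nucleic acid dye Syto60, suspension lines read with resazurin; signal relative to control wells, capped at 0 and 100%. One two-parameter sigmoid per drug and line, fitted in a mixed model over all curves with the slope shared within a line.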

XMD14-99 = compound: COc1cc(N2CCN(C)CC2)ccc1Nc1nc(N)c(C(=O)c2c(Cl)cccc2Cl)s1 [XMD14-99]; settings: top dose 10.24 µM; top dose inferred
Experimental: as §1

FH535 = compound: Cc1cc([N+](=O)[O-])ccc1NS(=O)(=O)c1cc(Cl)ccc1Cl [FH535]; settings: top dose 32 µM; top dose inferred
Experimental: as §1

Daoy (medulloblastoma, adherent) showed an AUC (AT-7519) of 0.683, an IC50 (AT-7519) of 1.97 µM and an AUC (XMD14-99) of 0.987. For the same cell line, the IC50 (XMD14-99) was greater than 10.2 µM, the AUC (FH535) was 0.636 and the IC50 (FH535) was 4.57 µM.

Cell Line GCT (soft tissue, adherent) has an AUC (AT-7519) of 0.79, an IC50 (AT-7519) of 4.22 µM and an AUC (XMD14-99) of 0.989. For the same cell line, the IC50 (XMD14-99) was greater than 10.2 µM, the AUC (FH535) was 0.587 and the IC50 (FH535) was 3.4 µM.

HT-115 (large intestine, adherent) was tested, and the AUC (AT-7519) was 0.99, the IC50 (AT-7519) was greater than 10.2 µM and the AUC (XMD14-99) was 0.989. It also gave an IC50 (XMD14-99) greater than 10.2 µM, an AUC (FH535) of 0.911 and an IC50 (FH535) greater than 32 µM.

“RERF-LC-MS (lung adenocarcinoma, adherent)” gave an AUC (AT-7519) of 0.839, an IC50 (AT-7519) of 7.3 µM and an AUC (XMD14-99) of 0.984. For the same cell line, the IC50 (XMD14-99) was greater than 10.2 µM, the AUC (FH535) was 0.415 and the IC50 (FH535) was 1.16 µM.

Cell Line DK-MG (glioma, adherent) has an AUC (AT-7519) of 0.85, an IC50 (AT-7519) greater than 10.2 µM and an AUC (XMD14-99) of 0.826. It also gave an IC50 (XMD14-99) greater than 10.2 µM, an AUC (FH535) of 0.761 and an IC50 (FH535) of 17 µM.

SK-N-SH (neuroblastoma, adherent) showed an AUC (AT-7519) of 0.934, an IC50 (AT-7519) greater than 10.2 µM and an AUC (XMD14-99) of 0.971. The IC50 (XMD14-99) was greater than 10.2 µM, the AUC (FH535) was 0.404 and the IC50 (FH535) was 1.09 µM.

Hs633T (fibrosarcoma, adherent) showed an AUC (AT-7519) of 0.713, an IC50 (AT-7519) of 2.24 µM and an AUC (XMD14-99) of 0.992. For the same cell line, the IC50 (XMD14-99) was greater than 10.2 µM, the AUC (FH535) was 0.651 and the IC50 (FH535) was 4.82 µM.

“LCLC-103H (large cell lung carcinoma, adherent)” showed an AUC (AT-7519) of 0.431, an IC50 (AT-7519) of 0.423 µM and an AUC (XMD14-99) of 0.986. It also gave an IC50 (XMD14-99) greater than 10.2 µM, an AUC (FH535) of 0.655 and an IC50 (FH535) of 5.13 µM.

ECC10 (stomach, suspension) showed an AUC (AT-7519) of 0.663, an IC50 (AT-7519) of 1.86 µM and an AUC (XMD14-99) of 0.973. For the same cell line, the IC50 (XMD14-99) was greater than 10.2 µM, the AUC (FH535) was 0.665 and the IC50 (FH535) was 5.89 µM.

For BICR10 (head and neck, adherent), the AUC (AT-7519) was 0.957, the IC50 (AT-7519) was greater than 10.2 µM and the AUC (XMD14-99) was 0.985. For the same cell line, the IC50 (XMD14-99) was greater than 10.2 µM, the AUC (FH535) was 0.602 and the IC50 (FH535) was 3.97 µM.

786-0 (kidney, adherent) gave an AUC (AT-7519) of 0.567, an IC50 (AT-7519) of 0.958 µM and an AUC (XMD14-99) of 0.914. For the same cell line, the IC50 (XMD14-99) was greater than 10.2 µM, the AUC (FH535) was 0.591 and the IC50 (FH535) was 3.48 µM.

In the case of SiHa (cervix, adherent), the AUC (AT-7519) is reported as 0.911, the IC50 (AT-7519) is reported as greater than 10.2 µM and the AUC (XMD14-99) is reported as 0.986. For the same cell line, the IC50 (XMD14-99) was greater than 10.2 µM, the AUC (FH535) was 0.763 and the IC50 (FH535) was 13.3 µM.

VMRC-RCW (kidney, adherent) showed an AUC (AT-7519) of 0.942, an IC50 (AT-7519) greater than 10.2 µM and an AUC (XMD14-99) of 0.983. For the same cell line, the IC50 (XMD14-99) was greater than 10.2 µM, the AUC (FH535) was 0.476 and the IC50 (FH535) was 1.73 µM.

For DoTc2-4510 (cervix, adherent), the AUC (AT-7519) was 0.733, the IC50 (AT-7519) was 2.83 µM and the AUC (XMD14-99) was 0.986. The IC50 (XMD14-99) was greater than 10.2 µM, the AUC (FH535) was 0.463 and the IC50 (FH535) was 1.6 µM.

SKN (uterus, adherent) showed an AUC (AT-7519) of 0.802, an IC50 (AT-7519) of 6.3 µM and an AUC (XMD14-99) of 0.897. For the same cell line, the IC50 (XMD14-99) was greater than 10.2 µM, the AUC (FH535) was 0.68 and the IC50 (FH535) was 7.12 µM.

SW948 (large intestine, adherent) was tested, and the AUC (AT-7519) was 0.958, the IC50 (AT-7519) was greater than 10.2 µM and the AUC (XMD14-99) was 0.982. The IC50 (XMD14-99) was greater than 10.2 µM, the AUC (FH535) was 0.725 and the IC50 (FH535) was 11.9 µM.

In the case of “NCI-H2227 (small cell lung carcinoma, semi-adherent)”, the AUC (AT-7519) is reported as 0.578, the IC50 (AT-7519) is reported as 1.08 µM and the AUC (XMD14-99) is reported as 0.952. For the same cell line, the IC50 (XMD14-99) was greater than 10.2 µM, the AUC (FH535) was 0.737 and the IC50 (FH535) was 10.5 µM.

Cell Line HCC2998 (large intestine, adherent) has an AUC (AT-7519) of 0.547, an IC50 (AT-7519) of 0.858 µM and an AUC (XMD14-99) of 0.988. It also gave an IC50 (XMD14-99) greater than 10.2 µM, an AUC (FH535) of 0.571 and an IC50 (FH535) of 3.11 µM.

HCC1569 (breast, adherent) showed an AUC (AT-7519) of 0.599, an IC50 (AT-7519) of 1.31 µM and an AUC (XMD14-99) of 0.945. For the same cell line, the IC50 (XMD14-99) was greater than 10.2 µM, the AUC (FH535) was 0.599 and the IC50 (FH535) was 4.08 µM.

Lines with a small IC50 respond at low doses; a limit (>, <) means that the fit lies beyond the doses tested. The AUC spans the tested range (256-fold, ending at the top dose) of the same fit: 1 means no effect, lower means more sensitive. Any top dose called inferred was calculated from the reported fits.
